The campaign covered roughly 310,000 compounds. About 14,000 (4.5%) showed an effect of 50% or more. Effects have a minus sign here. The list shows a part of the results.
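Note: peak tail current of the secondary pulse compared with the same well before compound.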

human ether-à-go-go-related gene (hERG) potassium channel, sequence (Q12809 whole entry, looked up): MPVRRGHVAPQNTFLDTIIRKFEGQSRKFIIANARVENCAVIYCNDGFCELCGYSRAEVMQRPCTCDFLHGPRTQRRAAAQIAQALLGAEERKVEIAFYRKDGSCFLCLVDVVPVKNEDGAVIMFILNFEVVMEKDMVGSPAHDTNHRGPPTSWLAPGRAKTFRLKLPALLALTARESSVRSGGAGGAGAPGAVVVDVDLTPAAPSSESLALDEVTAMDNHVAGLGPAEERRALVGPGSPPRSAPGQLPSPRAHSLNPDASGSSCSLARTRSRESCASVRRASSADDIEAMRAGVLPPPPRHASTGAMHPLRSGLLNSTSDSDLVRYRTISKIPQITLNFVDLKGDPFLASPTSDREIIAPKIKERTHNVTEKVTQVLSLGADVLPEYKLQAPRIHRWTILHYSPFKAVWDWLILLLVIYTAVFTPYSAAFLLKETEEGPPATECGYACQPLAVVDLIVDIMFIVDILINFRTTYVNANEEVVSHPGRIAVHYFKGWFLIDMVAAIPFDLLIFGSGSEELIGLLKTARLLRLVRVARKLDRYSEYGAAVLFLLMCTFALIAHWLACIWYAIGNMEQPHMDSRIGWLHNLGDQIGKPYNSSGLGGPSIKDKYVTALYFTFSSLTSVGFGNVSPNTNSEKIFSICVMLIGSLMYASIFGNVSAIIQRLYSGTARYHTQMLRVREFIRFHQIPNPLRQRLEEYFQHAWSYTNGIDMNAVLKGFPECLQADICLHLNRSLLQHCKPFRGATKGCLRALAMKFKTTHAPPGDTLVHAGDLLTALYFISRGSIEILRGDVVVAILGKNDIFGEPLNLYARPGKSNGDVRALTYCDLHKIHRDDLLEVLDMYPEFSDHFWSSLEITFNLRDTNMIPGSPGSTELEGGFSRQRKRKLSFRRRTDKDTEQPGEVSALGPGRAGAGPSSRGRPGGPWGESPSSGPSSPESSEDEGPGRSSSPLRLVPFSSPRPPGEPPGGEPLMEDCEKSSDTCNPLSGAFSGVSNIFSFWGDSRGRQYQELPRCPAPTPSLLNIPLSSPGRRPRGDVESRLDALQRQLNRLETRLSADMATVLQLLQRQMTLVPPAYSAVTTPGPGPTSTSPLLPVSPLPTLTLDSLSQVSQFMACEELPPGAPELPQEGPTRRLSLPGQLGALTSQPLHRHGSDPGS

The test concerns the target human ether-à-go-go-related gene (hERG) potassium channel (human, UniProt Q12809). The test can be described thus: primary screen, population patch clamp on CHO cells stably expressing hERG.
For `COc1cccc(OC)c1/C(O)=C(\C#N)c1nc2ccccc2[nH]1`, the “hERG current change (%, negative = inhibition) at 10uM” value is listed as -11.3%.
With `O=C(NCCN1CCOCC1)c1ccccc1N1C(=O)[C@@H]2Cc3c([nH]c4ccccc34)C(c3ccc(F)cc3)N2C1=O` (some centres unmarked), the “hERG current change (%, negative = inhibition) at 10uM” value is recorded as -47.2%.
Next, `O=C(/C=C/c1cccc(O)c1)c1cccnc1`: 3.05%; `Cc1ccc(CNS(=O)(=O)NCc2ccccc2F)cc1`: 3.08%.
As for `Clc1cccc2sc(-c3nnc(-c4ccccc4)o3)c(Cl)c12`, the figure is -2.74%; as for `CCOC(=O)[C@H]1[C@H]2COc3cc(OC)ccc3[C@@H]2N2C(=O)CN(CC3CCCO3)C(=O)[C@@]12C` (some centres unmarked), 13.8%.
Next, `Cc1ccnn1-c1ccc(C(=O)NCC(c2ccco2)N2CCCC2)cc1` (centres unmarked): -16.5%; `CCCN(CC(=O)Nc1ccccc1C)C(=O)C1CCN(c2ncnc3sc(C)c(C)c23)CC1`: -76.2%; `C/C(=N/NS(=O)(=O)c1ccc(Cl)cc1)c1ccc2c(c1)OCO2`: -12.9%.
Regarding `COc1ccc(NC(=O)CN(C)C(=O)Cc2coc3cc(C)c(C)cc23)cc1`, the “hERG current change (%, negative = inhibition) at 10uM” value is given as -7.63%.
Next, `CCOc1ccc2nc(Nc3nc4ccc(NC(C)=O)cc4s3)sc2c1`: 7.77%; `CC1=C(C(=O)OCc2ccccc2)C(c2ccc(Cl)cc2)NC(=O)N1CCCC(=O)O` (centres unmarked): 0.856%; `O=C(NCc1ccco1)c1cccc(F)c1`: 6.59%.
Next, `CCOc1cccc2sc(N(CCCN(C)C)C(=O)c3ccc(S(=O)(=O)N4CCCCCC4)cc3)nc12.Cl`: 7.67%; `O=C(CSc1nnc(-c2c[nH]c3ccccc23)o1)N(Cc1ccccc1)c1ccc(F)cc1`: 14.1%; `NC(=S)C(c1ccccc1)c1ncc(C(F)(F)F)cc1Cl` (centres unmarked): 17.5%.
Take `[Br-].c1ccc(Cc2cc[n+](Cc3ccccn3)cc2)cc1`: the “hERG current change (%, negative = inhibition) at 10uM” value is listed as 1.63%.
As for `COCCn1cc(C(=O)NCCCOC(C)C)c2c3ccccc3n(C)c2c1=O`, the figure is 2.69%; as for `O=C(NC1CCN(S(=O)(=O)c2ccc(Cl)c(F)c2)CC1)c1cccnc1`, -19.2%.
As for `COCc1cc(=O)[nH]c(-c2ccccc2)n1`, the figure is 8.53%.
As for `O=C(NCc1ccco1)c1ccccc1-c1nc(-c2ccccc2)no1`, the figure is 2.66%; as for `O=C(O)c1cccc(COCC(F)(F)C(F)F)c1`, 3.02%; as for `Nc1nc(N)nc(-c2ccccc2-c2nc(N)nc(N)n2)n1`, 32.5%.
`COc1cc(CNC(=O)OCC(C)C)cc(OC)c1OC`: the “hERG current change (%, negative = inhibition) at 10uM” value amounted to 4.14%.
As to `COc1ccc(NC(=O)C2CCCN2S(=O)(=O)c2cccc3nsnc23)c(OC)c1` (centres unmarked), the “hERG current change (%, negative = inhibition) at 10uM” value was -9.33%.
With `Cc1csc(SCC(=O)NC2CCCCC2)n1`, the “hERG current change (%, negative = inhibition) at 10uM” value was -1.79%.
Next, `O=C(CC1SC(N2CCOCC2)=NC1=O)Nc1cc([N+](=O)[O-])ccc1Cl` (centres unmarked): 6.56%; `CCCCN=C1NC(=O)C(CC(=O)Nc2ccc(Cl)cc2)S1` (centres unmarked): -9.82%; `CC(=O)Nc1ccc(NC(=O)CSc2ccc(-c3cccnc3)nn2)cc1`: 24.7%.
On to `Cc1cnc(C(=O)OCC(=O)Nc2ccc(Cl)cn2)cn1`, for which the “hERG current change (%, negative = inhibition) at 10uM” value is 8.13%.
Regarding `N=C(CC1CC(=O)NC(=O)C1)C1=C(O)CCCC1=O`, the “hERG current change (%, negative = inhibition) at 10uM” value is on record as 3.13%.
As for `CCN(CC)c1ccc(CC(=O)NC(C)Cc2ccccc2)cc1` (centres unmarked), the figure is -0.0724%; as for `COc1ccc(CCNC(=O)CN(c2ccccc2OC)S(=O)(=O)c2ccc(C)cc2)cc1`, -13.1%.
As for `O=C(NCc1cccnc1)c1ccccc1NS(=O)(=O)c1ccc(F)cc1`, the figure is 2.64%; as for `CC1(C)CC(=O)C(C=NCCN2CCN(C3CC(=O)N(c4ccc(F)cc4)C3=O)CC2)=C(O)C1` (centres unmarked), 6.86%.
In the case of `CC(C)c1ccc(S(=O)(=O)c2n[nH]n3c2nc(=O)c2ccccc23)cc1`, the “hERG current change (%, negative = inhibition) at 10uM” value is recorded as -16.7%.
Take `CC(=O)N1c2c(cc(Br)cc2S(=O)(=O)N2CCCCC2)CC1C` (centres unmarked): the “hERG current change (%, negative = inhibition) at 10uM” value is on record as -29.4%.
Turning to `CC(=O)Nc1sc2c(c1CN1CCN(c3ccccn3)CC1)CCCC2`, the “hERG current change (%, negative = inhibition) at 10uM” value is recorded as -55.3%.
Next, `Cn1cnnc1SCc1nnc(-c2ccccc2Br)o1`: 11.1%; `CCOc1ccc(NS(=O)(=O)c2ccc3c(c2)oc(=O)n3C)cc1`: 26.1%.
Turning to `CC1(C)CC(=O)C(C=NCCN2CCN(CCc3ccccc3)CC2)=C(O)C1`, the “hERG current change (%, negative = inhibition) at 10uM” value is -39.5%.
In the case of `CCN(CC)S(=O)(=O)c1cccc(C(=O)N/N=C/c2ccccc2OCC(=O)O)c1`, the “hERG current change (%, negative = inhibition) at 10uM” value amounted to 13.7%.
For the compound `COc1ccccc1N1CCN(C2CCN(S(=O)(=O)c3ccc(NC(C)=O)cc3)CC2)CC1`, the “hERG current change (%, negative = inhibition) at 10uM” value is recorded as 0.727%.
As to `CN(C)C(=S)SSC(=S)N(C)C`, the “hERG current change (%, negative = inhibition) at 10uM” value was determined as 17.2%.
On to `CCN1CCN(C(c2cccs2)C(C)NC(=O)c2cccc(OC)c2OC)CC1` (centres unmarked), for which the “hERG current change (%, negative = inhibition) at 10uM” value is -18%.
As for `CCNc1nc(CSc2ccccc2)nc2sc(C)c(C)c12`, the figure is 1.64%.
Next, `Oc1[nH]c2ccccc2c1OCc1ccncc1`: 8.82%; `CCC(=O)Nc1ccc(S(=O)(=O)Nc2cccnc2)cc1`: 9.21%.
With `Cl.O=C(NC1CCN(Cc2ccccc2)CC1)C12CC3CC(CC(C3)C1)C2`, the “hERG current change (%, negative = inhibition) at 10uM” value was -22.7%.
Consider `COC(=O)CN(Cc1ccccc1)S(=O)(=O)c1ccc(OC)c(OC)c1`, for which the “hERG current change (%, negative = inhibition) at 10uM” value is -0.381%.
`COc1cc2c(cc1OC)C(C(=O)NCc1ccco1)C1c3ccccc3CCN1C2=O` (centres unmarked): the “hERG current change (%, negative = inhibition) at 10uM” value is -10.3%.
Turning to `Cc1c(N(C)S(=O)(=O)c2cc(C(=O)Nc3ccccn3)ccc2Cl)c(=O)n(-c2ccccc2)n1C`, the “hERG current change (%, negative = inhibition) at 10uM” value is 20.8%.
In the case of `COc1ccc(/C=N/NC(=S)Nc2cccc(C(=O)O)c2)cc1OC`, the “hERG current change (%, negative = inhibition) at 10uM” value is reported as 4.42%.
As for `COC(=O)c1sccc1NC(=O)c1ccccc1F`, the figure is 15.3%.
With `COc1cc(N2C(=O)CC3(CCCC3)CC2=O)cc(OC)c1OC`, the “hERG current change (%, negative = inhibition) at 10uM” value turned out to be 4.04%.
Next, `Cc1ccc(NC(=O)C2CC(=O)n3c(nc4ccccc43)N2)cc1Cl` (centres unmarked): 22.8%.

The values are drawn from publication PMC4336329 (PLoS ONE, 2015).
